In PubChem BioAssay AID504845 (National Center for Advancing Translational Sciences (NCATS), 2011):
In all, about 390,000 compounds went through this assay and about 150 (0.038%) were called active. This list was built around the results that the source calls inconclusive (neither active nor inactive); the mix of calls is not that of the screen. The call rests on the fitted dose curve; in most records, active means well fitted inhibition curve with a large enough effect; inconclusive means small, poorly fitted or top-dose-only effect; inactive means no such curve, though single readings can be large or run the other way. Potencies of inconclusive entries are doubtful fits and often do not repeat.

Each molecule was assayed against Regulator of G-protein signaling 4 (Homo sapiens) (UniProt P49798) (assay: Inhibitors of Regulator of G Protein Signaling (RGS) 4: qHTS). Conditions: Transcreener GDP fluorescence polarization, RGS4-accelerated GTP hydrolysis; series mostly up to 114 µM; activity change, negative = inhibition: at the top concentration.
Chain of UniProt P49798 (P49798 whole entry, looked up): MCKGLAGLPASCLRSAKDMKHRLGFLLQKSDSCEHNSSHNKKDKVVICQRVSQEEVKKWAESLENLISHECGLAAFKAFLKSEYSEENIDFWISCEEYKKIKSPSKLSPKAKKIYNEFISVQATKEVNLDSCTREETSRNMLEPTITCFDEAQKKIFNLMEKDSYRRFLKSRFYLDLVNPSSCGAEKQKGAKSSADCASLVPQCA
Outline: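 MLSMR compounds (23 nl, pin-transferred) preincubated 10 min at room temperature with a 500nM (2x) first reagent, then RGS4 at 900nM (2x) plus Transcreener GDP mix added; fluorescence polarization (620/688 nm) read before and after 90 min at 30 °C.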
Further: nearly all actives have a fitted effect of over 75% in size.
On the % scale 0 is the no-effect control and ±100 the full control effect; potency means the concentration at half of the fitted maximal effect; tags describe the fitted curve by direction and shape.

| Structure (SMILES) | Potency | activity change, negative = inhibition |
| --- | --- | --- |
| Cc1nn(C2CCS(=O)(=O)C2)c(C)c1C=O (configuration not stated) | inconclusive: 22.4 µM [inhibitor, full curve, poor fit] |  |
| Cn1nnnc1Sc1ncnc2scc(-c3ccc([N+](=O)[O-])cc3)c12 |  | inactive: -17.6% |
| Cc1cc(C)c2nc(N3C(=O)C(O)=C(C(=O)c4ccco4)C3c3cccc(O)c3)sc2c1 (configuration not stated) | inconclusive: 56.2 µM [inhibitor, partial curve, poor fit] |  |
| c1ccc(-c2nn3c(Cn4cnc5ccccc54)nnc3s2)cc1 | inconclusive: 50.1 µM [inhibitor, partial curve, poor fit] |  |
| CN(Cc1ccco1)S(=O)(=O)c1nnc(NC(=O)c2ccccc2Cl)s1 | inconclusive: 17.8 µM [inhibitor, partial curve, poor fit] |  |
| Cc1ccc2c(c1)C(c1ccccc1)N(C(=O)c1ccc(S(=O)(=O)N3CCOCC3)cc1)CC(=O)N2 (configuration not stated) | inconclusive: 20 µM [inhibitor, full curve, poor fit] |  |
| CCOC(=O)c1nn(-c2ccc(OC)cc2)c(=O)c2c(N)scc12 | inconclusive: 44.7 µM [inhibitor, partial curve, poor fit] |  |
| Cc1nn(C)c(C)c1CCNC(=O)Nc1ccccc1C(F)(F)F |  | inactive: 10.1% |
| COC(=O)c1cn(NC(=O)c2cc([N+](=O)[O-])ccc2F)c(=O)c2ccccc12 |  | inactive: -6.6% |
| COc1ccccc1OCc1cc(C(=O)N2CCN(C)C(c3ccccc3)C2)no1 (configuration not stated) |  | inactive: 5.36% |
| O=C(O)c1ccc(Oc2ccc([N+](=O)[O-])cc2)c([N+](=O)[O-])c1 | inconclusive: 50.1 µM [inhibitor, single point] |  |
| CCc1[nH]c(=S)c(C#N)c2c1CCCC2 | inconclusive: 44.7 µM [inhibitor, partial curve, poor fit] |  |
| Oc1ccc2ccccc2c1C=Nc1ccccc1-c1nc2ccccc2[nH]1 | inconclusive: 17.8 µM [inhibitor, full curve, poor fit] |  |
| CCNC(=O)NC(=O)CSc1ccc2ccccc2c1 | inconclusive: 50.1 µM [inhibitor, partial curve, poor fit] |  |
| O=C(Oc1cccc2cccnc12)c1cccc([N+](=O)[O-])c1 |  | inactive: 11.7% |
| CCc1c(C)sc2nc(C(C)C)nc(SCC(=O)N3CCc4ccccc4C3)c12 |  | inactive: -24.9% |
| Cc1ccc(N=Nc2ccc(N)cc2C)c(S(N)(=O)=O)c1 | inconclusive: 79.4 µM [inhibitor, single point] |  |
| COc1ccc(S(=O)(=O)N2CCc3ccccc32)cc1C(=O)Nc1cccnc1 |  | inactive: -9.3% |
| CN1CCN(C(=O)C(C(=O)c2ccc(F)cc2)n2ccccc2=O)CC1 (configuration not stated) |  | inactive: -2.01% |
| CC(C)(C)OC(=O)N1CCC(c2c(C(=O)NCCN3CCOCC3)cnn2-c2ccc(F)cc2)CC1 |  | inactive: -7.64% |
| Cc1cc(C)[n+](-c2ccc(Oc3ccccc3)c(S(=O)(=O)[O-])c2)[nH]1 | inconclusive: 44.7 µM [inhibitor, partial curve, poor fit] |  |

| Structure (SMILES) | Potency | activity change, negative = inhibition |
| --- | --- | --- |
| COc1ccccc1OCCCCN1CCN(c2ccccc2OC)CC1 |  | inactive: -13.2% |
| CC(C(=O)Nc1ccccc1-c1ccccc1)N(C)Cc1nc2ccccc2c(=O)[nH]1 (configuration not stated) | inconclusive: 39.8 µM [inhibitor, partial curve, poor fit] |  |
| COc1ccc(C(=O)O)cc1S(=O)(=O)NCCCN1CCCC1=O | inconclusive: 89.1 µM [inhibitor, single point] |  |
| CC(C)C[C@@H](CN)NC(=O)c1nc[nH]c1C(=O)N[C@@H](Cc1ccccc1)C(=O)CNC[C@H](C)NC(=O)c1nc[nH]c1C(=O)N[C@@H](CC(C)C)C(=O)O |  | inactive: -31.4% |
| O=C(CCCN1C(=O)S/C(=C\C=C\c2ccccc2)C1=O)Nc1ccc(C(=O)O)cc1 | inconclusive: 44.7 µM [inhibitor, partial curve, poor fit] |  |
| CCc1c(C)nc2[nH]nc(-c3ccccc3C)n2c1=O | inconclusive: 89.1 µM [inhibitor, single point] |  |
| O=C(Nc1nc2n(n1)C(c1ccccc1)C=C(c1ccc(Cl)cc1)N2)c1ccco1 (configuration not stated) | inconclusive: 50.1 µM [inhibitor, partial curve, poor fit] |  |
| CSc1nnc(Cn2c(=O)sc3ccccc32)n1CCc1ccccc1 | inconclusive: 70.8 µM [inhibitor, partial curve, poor fit] |  |
| CN1c2ccccc2C(C)(C)C12C=Cc1cc(O)ccc1O2 (configuration not stated) |  | inactive: -20% |
| COc1cccc(OCc2nnc(SCc3cc(=O)[nH]c4ccccc34)o2)c1 | inconclusive: 17.8 µM [inhibitor, full curve, poor fit] |  |
| C/C=N\NC(=O)CNC(=O)CNC(=O)c1ccccc1 | inconclusive: 79.4 µM [inhibitor, partial curve, poor fit] |  |
| Cc1cc(/C=C2\Cc3ccccc3C2=O)c(C)n1-c1ccccc1 | inconclusive: 89.1 µM [inhibitor, single point] |  |
| CC(C)=CCCC(C)CN(C)CCc1ccccn1 (configuration not stated) |  | inactive: 9.13% |
| Oc1ccc(/C=N/n2c(COc3ccccc3)n[nH]c2=S)c(O)c1 | inconclusive: 17.8 µM [inhibitor, full curve, poor fit] |  |
| COc1ccc(N=c2nc(-c3ccccc3)n(-c3ccc(C)cc3)s2)cc1 | inconclusive: 28.2 µM [inhibitor, full curve, poor fit] |  |
| CC(C)(Oc1ccc(Cl)cc1)C(=O)NCc1ccco1 | inconclusive: 89.1 µM [inhibitor, single point] |  |
| Cc1c(Cl)cccc1Nc1n[nH]c(=S)s1 | inconclusive: 56.2 µM [inhibitor, partial curve, poor fit] |  |
| CN(C)c1ccc(N/C=C/C(=O)c2ccc(F)cc2)cc1 | inconclusive: 56.2 µM [inhibitor, partial curve, poor fit] |  |
| COc1ccc(C(=O)c2coc3c2C(=O)C(=O)c2ccccc2-3)cc1 | inconclusive: 17.8 µM [inhibitor, full curve, poor fit] |  |
| Cc1cc(Cl)ccc1OCC(=O)NNC(=O)c1ccc(=O)[nH]c1 |  | inactive: -5.25% |
| Cn1c(-c2ccccc2)cc2c3no[n+]([O-])c3ccc21 |  | inactive: 7.76% |
